Measurements taken from the supplement of paper PMC3334620.
The full ranking holds about 33,000 sequences; the median of “E-score (-0.5 to 0.5)” is about -0.012, and the highest 2% start at about 0.27. This is one part of the list.

Each sequence was assayed against T1, Vhr1 (UniProt P40522) (assay: PBM E-score (8-mer binding enrichment) (E-score (-0.5 to 0.5)); higher = stronger / more preferred TF binding; most listed sequences are background and not binding sites). Settings: protein concentration: 200 nM; construct: GST-full length.
T1 sequence: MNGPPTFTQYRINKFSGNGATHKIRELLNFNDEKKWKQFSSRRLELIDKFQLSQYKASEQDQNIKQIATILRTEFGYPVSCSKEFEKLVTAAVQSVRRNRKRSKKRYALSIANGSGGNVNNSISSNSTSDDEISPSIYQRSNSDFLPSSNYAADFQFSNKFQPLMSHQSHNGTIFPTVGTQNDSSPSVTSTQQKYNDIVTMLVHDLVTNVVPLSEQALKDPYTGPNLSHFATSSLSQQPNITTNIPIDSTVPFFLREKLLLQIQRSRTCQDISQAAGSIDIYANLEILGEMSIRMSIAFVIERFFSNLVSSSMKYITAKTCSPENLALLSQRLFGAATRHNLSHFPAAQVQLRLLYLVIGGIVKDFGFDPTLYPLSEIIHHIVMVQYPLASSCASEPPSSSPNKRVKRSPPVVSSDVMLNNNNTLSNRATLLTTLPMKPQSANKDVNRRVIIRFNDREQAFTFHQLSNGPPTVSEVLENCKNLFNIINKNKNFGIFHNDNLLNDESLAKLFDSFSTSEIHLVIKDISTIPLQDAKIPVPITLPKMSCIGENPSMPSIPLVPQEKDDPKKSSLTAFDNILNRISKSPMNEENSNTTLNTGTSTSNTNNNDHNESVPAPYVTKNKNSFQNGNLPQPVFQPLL
Summary of the method: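 For each ungapped eight-base word taken together with its reverse complement, the Universal PBM Analysis Suite assigned an E-score. Binding data came from GST-tagged yeast transcription factors, applied at about 100-200 nM, on universal all-10-mer Agilent arrays made double-stranded by primer extension. Fluorescent anti-GST marked bound protein, and scans were normalised with masliner.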

Row | Sequence | PBM E-score
1 | ACTCCACC | 0.222
2 | GGTGGTCA | 0.00378
3 | TGTGGAAA | 0.034
4 | ATCTTTTC | -0.26
5 | AGGCAGAG | -0.209
6 | AAATCTTC | -0.274
7 | GAATTCCA | -0.0684
8 | CTAGATAG | -0.0804
9 | ATACGGAA | -0.00421
10 | ACCTGCCT | -0.0145
11 | CCGATCGA | -0.0293
12 | AGTCACGC | 0.426
13 | TCCCAGGA | -0.222
14 | GATAGAAA | -0.262
15 | TGGCCCCA | -0.236
16 | ACTTGGGC | -0.126
17 | CCTAAGAG | -0.287
18 | AGAGAACC | -0.0613
19 | ATTCCCGG | 0.0191
20 | AGGTAGAG | -0.231
21 | CGGCAGTA | -0.109
22 | ACAGCGAC | 0.00078
23 | AAGCTTGC | -0.243
24 | GGACGCTA | -0.324
25 | ACCGCGAC | 0.238

Row | Sequence | PBM E-score
26 | CCGTAGAA | -0.33
27 | GGCCCATA | -0.0614
28 | TTAAGAAA | -0.191
29 | AAAAATAA | -0.0845
30 | CACGTGGG | -0.0182
31 | AGAAAATA | -0.0162
32 | CCCGGTCC | -0.12
33 | GCTCAAGC | -0.169
34 | GAAATCGA | -0.049
35 | CCCTTCGA | -0.193
36 | GAGGTTGC | -0.0739
37 | AGAACTCC | -0.0316
38 | GTGGGGTA | 0.22
39 | ACTCGTTG | 0.0826
40 | TGTTCGAA | -0.0984
41 | AACATGAA | 0.0738
42 | CTCGTTTC | 0.0108
43 | CGAGGCAC | -0.0316
44 | CCGTAATA | 0.109
45 | CGAGAGAA | 6e-05
46 | GGAATTAC | -0.128
47 | CGCTCTCA | -0.128
48 | AATAGGAT | 0.0602
49 | TACGTTGA | 0.0682
50 | AGAATCCT | -0.231

Row | Sequence | PBM E-score
51 | TAGTGTCA | 0.226
52 | AGCTTCAA | -0.278
53 | TCCCGGAA | -0.0731
54 | AAGACAGC | -0.134
55 | ATTTTAAC | -0.195
56 | ATTCACCC | 0.135
57 | AACCCCCT | -0.155
58 | CGTTATCA | -0.0888
59 | CTTATGAA | -0.0743
60 | TACAGTAA | 0.00648
61 | GTTCGAAA | -0.141
62 | AAGTTTTA | -0.19
63 | ATAGGTTC | -0.0497
64 | AAGCAATC | 0.0299
65 | AAAGTAGC | -0.16
66 | ACTCTGTA | 0.0725
67 | ATGACGGG | 0.134
68 | ATTACATG | 0.171
69 | CATGGAAG | 0.119
70 | ATGACCAT | 0.13
71 | CACGAAGG | -0.0652
72 | CTGCATGA | 0.128
73 | AACGACGT | 0.0554
74 | CCAACGCG | -0.021
75 | AACGCCAT | -0.0891

Row | Sequence | PBM E-score
76 | GCAAACGA | -0.0335
77 | ACGCGAGA | 0.0117
78 | CTATCTTC | -0.11
79 | GAGCAAAC | 0.0461
80 | GAAGCGGA | 0.0653
81 | AGGACTAT | -0.00747
82 | CCCGGCGA | 0.197
83 | CCCCTAAC | -0.141
84 | CATCACAG | 0.0153
85 | CCCCCTAC | -0.185
86 | CCAATGAA | -0.18
87 | CGTGTATC | 0.0909
88 | ACCACTGA | -0.121
89 | ATATAGTC | 0.26
90 | GGAGTACC | 0.104
91 | ATGAAATC | 0.164
92 | ACACCCGA | 0.118
93 | GCTGAACC | 0.0318
94 | AAGATTCC | 0.0421
95 | AGTATATG | 0.239
96 | CATTGACA | -0.0421
97 | CCCTCGTA | 0.05
98 | CGCCCGGC | -0.0419
99 | AGGGCGTG | -0.0396
100 | GGAACCGA | 0.0439

Row | Sequence | PBM E-score
101 | CGGGATTC | 0.159
102 | AACGCTAA | -0.123
103 | CTTTGGTC | -0.0584
104 | AGTTCTCC | -0.0759
105 | CTAAATCC | 0.044
106 | GCTTGTAA | -0.0558
107 | ATCCATGG | 0.0727
108 | CCTTGGTA | -0.0952
109 | AGCACTAA | 0.00464
110 | AGGTAGGC | -0.0538
111 | CACGTCGA | 0.0334
112 | CATTGAGG | -0.214
113 | GGATCAAA | -0.0301
114 | AAAGACGA | -0.0583
115 | GGATCGCC | 0.0753
116 | GACAGGTA | -0.0817
117 | AGGGAGAG | -0.0561
118 | ACAAGTAC | 0.00989
119 | CACAGCAC | 0.164
120 | GGCTACAC | 0.134
121 | AATTTTCG | -0.296
122 | AGGACAAG | -0.249
123 | CGTATATA | -0.149
124 | CTCACAAG | 0.155
125 | GAGATCAA | 0.0698

Row | Sequence | PBM E-score
126 | AAGCTGAT | 0.135
127 | CCTATAGA | -0.155
128 | CCCCGAAG | -0.0601
129 | ATGTTTCA | 0.0295
130 | GAAGGGAC | -0.00768
131 | AAGACCAT | -0.0248
132 | CCGGGACC | -0.0973
133 | TCGCGTCA | 0.0931
134 | CCCGGAGC | 0.12
135 | GTCCATTA | 0.0235
136 | ATGTCTGC | 0.0028
137 | AACGACCC | 0.0189
138 | GCACTATA | 0.0862
139 | CCGCCATA | 0.161
140 | CATCTCCG | 0.161
141 | CCCACTCC | 0.132
142 | AAGCCACA | -0.126
143 | ATTCTTCC | -0.265
144 | GCACACCA | 0.23
145 | AAACTGGG | -0.192
146 | CTATGCCC | 0.103
147 | ATTACGCA | 0.0913
148 | CGAGGTCC | -0.00823
149 | AAACCTCT | -0.135
150 | ATTCCATG | 0.247

Row | Sequence | PBM E-score
151 | GACCATCC | -0.0251
152 | GATATACA | 0.113
153 | AGAGTCCG | -0.0962
154 | ACCTTGTC | -0.161
155 | AGAGTTCC | -0.264
156 | ACTCCGTG | 0.188
157 | CGCGATAA | -0.0316
158 | CAGATGGA | 0.0627
159 | ACTACACA | 0.327
160 | AACAGGTC | -0.124
161 | ATGAAAAC | 0.201
162 | TGACAGAA | -0.227
163 | CCGATAAA | -0.158
164 | CACAGACA | 0.0563
165 | CTCCTAAG | -0.217
166 | GGGTGATA | 0.128
167 | AGGGGCCG | -0.132
168 | ATGCATTG | 0.00189
169 | ATTTTCTC | -0.114
170 | AGTAGCCA | 0.00989
171 | AGATTCGA | -0.0165
172 | AAAGACCT | -0.0845
